The full ranking holds about 33,000 sequences; the median of “E-score (-0.5 to 0.5)” is about -0.054, and the highest 2% start at about 0.35. Some of the results follow.

In the test the target is T1, Stb5 (UniProt P38699).
T1 sequence: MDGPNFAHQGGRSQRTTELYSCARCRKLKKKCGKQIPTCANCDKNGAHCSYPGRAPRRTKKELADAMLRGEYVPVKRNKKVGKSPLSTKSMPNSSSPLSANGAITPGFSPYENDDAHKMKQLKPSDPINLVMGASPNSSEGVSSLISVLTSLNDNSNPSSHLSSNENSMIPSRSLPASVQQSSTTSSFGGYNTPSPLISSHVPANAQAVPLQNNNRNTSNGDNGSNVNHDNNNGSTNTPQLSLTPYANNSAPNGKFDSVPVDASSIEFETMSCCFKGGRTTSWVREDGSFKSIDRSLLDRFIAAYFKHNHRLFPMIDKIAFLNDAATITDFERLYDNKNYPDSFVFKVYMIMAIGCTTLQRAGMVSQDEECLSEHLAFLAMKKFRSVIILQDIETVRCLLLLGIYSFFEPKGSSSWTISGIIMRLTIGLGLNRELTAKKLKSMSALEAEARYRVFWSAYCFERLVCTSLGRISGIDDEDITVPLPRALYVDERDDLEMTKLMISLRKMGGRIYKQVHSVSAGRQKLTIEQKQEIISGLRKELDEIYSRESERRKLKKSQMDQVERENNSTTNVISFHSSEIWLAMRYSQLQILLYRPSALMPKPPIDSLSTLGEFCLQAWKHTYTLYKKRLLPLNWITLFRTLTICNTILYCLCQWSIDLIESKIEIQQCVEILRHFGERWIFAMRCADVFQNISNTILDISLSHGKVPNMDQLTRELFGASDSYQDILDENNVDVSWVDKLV
In words: PBM E-score (8-mer binding enrichment) (E-score (-0.5 to 0.5)); higher = stronger / more preferred TF binding; most listed sequences are background and not binding sites. Conditions: protein concentration: 200 nM; construct: GST-full length. Put shortly:
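PURExpress in vitro transcription/translation supplied GST-tagged yeast transcription factors, either full-length or DNA-binding domain. Applied at about 100-200 nM to universal all-10-mer Agilent arrays double-stranded by primer extension, the bound protein was detected with fluorescent anti-GST. E-scores, modified Wilcoxon-Mann-Whitney statistics, were given by the Universal PBM Analysis Suite to ungapped eight-base words pooled with their reverse complements after masliner normalisation.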
Take AAGATCCC: the “PBM E-score” value stood at 0.0724.

As for GGATGAGA, the “PBM E-score” value is -0.304.

For the sequence CGTGGTGC, the “PBM E-score” value was 0.105.

With ATTGGTGA, the “PBM E-score” value was -0.252.

Consider ATTACACA, for which the “PBM E-score” value was -0.0719.

For GAGTTCAA, the “PBM E-score” value was -0.153.

In the case of CCACATGC, the “PBM E-score” value was -0.104.

As to ACTTAGGG, the “PBM E-score” value is -0.279.

With AAAGATTG, the “PBM E-score” value was -0.239.

CGGTTTGC: the “PBM E-score” value turned out to be 0.0773.

Consider GGGCGGCA, for which the “PBM E-score” value was 0.323.

Consider CTGAATCC, for which the “PBM E-score” value is -0.0039.

Regarding AGCCTCAG, the “PBM E-score” value was -0.284.

Take CCGAGCGG: the “PBM E-score” value amounted to 0.332.

For the sequence AGGAATCG, the “PBM E-score” value is -0.00211.

Turning to CATGGTGC, the “PBM E-score” value worked out at 0.0108.

On to GTCATTTA, for which the “PBM E-score” value was -0.0261.

Turning to GACATACA, the “PBM E-score” value was found to be 0.129.

Consider ACTAACTG, for which the “PBM E-score” value was -0.042.

Take CATGAGGG: the “PBM E-score” value is -0.227.

In the case of GCCAGAGA, the “PBM E-score” value was -0.195.

GTAGAGGA: the “PBM E-score” value is -0.212.

For the sequence CATTTGTC, the “PBM E-score” value is -0.0965.

On to CATACTGA, for which the “PBM E-score” value is -0.196.

For the sequence ACCCTCGG, the “PBM E-score” value was 0.124.

As for ATAACTTC, the “PBM E-score” value is 0.0857.

For the sequence GCCACTGA, the “PBM E-score” value was -0.192.

On to CCCTTGAG, for which the “PBM E-score” value is -0.025.

For the sequence GAAGGTTA, the “PBM E-score” value is -0.0832.

AAGGAGGA: the “PBM E-score” value is -0.32.

For the sequence GGAAAATA, the “PBM E-score” value was found to be 0.0672.

Turning to GAGCCTGA, the “PBM E-score” value was -0.016.

CCATAACG: the “PBM E-score” value was -0.0562.

With AACGTCTA, the “PBM E-score” value is -0.113.

As for CCTATTGC, the “PBM E-score” value was -0.0447.

With AAATACCT, the “PBM E-score” value was -0.0726.

As to GCATGGGA, the “PBM E-score” value is -0.0248.

As for AAATTCTC, the “PBM E-score” value was -0.0542.

In the case of CGACCTGA, the “PBM E-score” value was -0.281.

As for GATCCCAA, the “PBM E-score” value is -0.249.

As for ACACTGGA, the “PBM E-score” value is -0.163.

For the sequence GCTGTATA, the “PBM E-score” value is -0.11.

For AACGCCGT, the “PBM E-score” value came out at 0.437.

For AATCAGCG, the “PBM E-score” value was found to be 0.177.

In the case of CGAGAGGC, the “PBM E-score” value was -0.109.

Turning to ACCTACCA, the “PBM E-score” value is -0.158.

For the sequence AGGTCGCG, the “PBM E-score” value was -0.00818.

Turning to GCGTCTAA, the “PBM E-score” value was -0.0711.

AAATACTC: the “PBM E-score” value was -0.00557.

Turning to ATGGCGGG, the “PBM E-score” value was found to be 0.283.

Turning to CGCTAGAA, the “PBM E-score” value was found to be 0.0671.

In the case of CGGCAGCA, the “PBM E-score” value amounted to 0.208.

On to CGACTTCC, for which the “PBM E-score” value was determined as 0.025.

For GCGCTTAA, the “PBM E-score” value worked out at 0.0781.

With TCGTGGCA, the “PBM E-score” value is -0.196.

Take GCCTTTCA: the “PBM E-score” value stood at 0.097.

GGAGTCAC: the “PBM E-score” value was found to be 0.116.

Regarding GTCCGCAA, the “PBM E-score” value is 0.196.

With ATGGCAGG, the “PBM E-score” value is -0.0726.

In the case of AGACAAGG, the “PBM E-score” value is -0.0903.

For the sequence ACTATGAA, the “PBM E-score” value is -0.131.

Consider ATGGGCGA, for which the “PBM E-score” value is -0.103.

As to CGCAGCTC, the “PBM E-score” value was -0.208.

In the case of ATTGAATC, the “PBM E-score” value was -0.113.

As to AGAGAAGG, the “PBM E-score” value was -0.0992.

On to ATTTCACG, for which the “PBM E-score” value came out at 0.0121.

On to AGACTAAG, for which the “PBM E-score” value is -0.0466.

As for GAGCTTGA, the “PBM E-score” value is -0.169.

In the case of CGGAACCC, the “PBM E-score” value amounted to 0.126.

In the case of ACCTGCTA, the “PBM E-score” value is -0.0977.

As to AGTTGAGG, the “PBM E-score” value was -0.237.

Regarding ACTTATCC, the “PBM E-score” value was 0.135.

Turning to AAGGTTTC, the “PBM E-score” value was -0.214.

Take GCCTGGAC: the “PBM E-score” value came out at 0.0057.

As for AGTCGGGA, the “PBM E-score” value is 0.287.

For AACCCGGC, the “PBM E-score” value came to 0.309.

As for GACTGCGC, the “PBM E-score” value is -0.087.

As to TAGGGGCA, the “PBM E-score” value was -0.317.

As for GCTCTTCA, the “PBM E-score” value was -0.134.

For CGGATGAA, the “PBM E-score” value amounted to 0.17.

For CTTTAAAC, the “PBM E-score” value came to 0.0394.

Take CATACTCA: the “PBM E-score” value is -0.236.

On to ATAAAACA, for which the “PBM E-score” value stood at 0.0701.

In the case of CGCCACAC, the “PBM E-score” value was 0.0326.

With ACCTCGTA, the “PBM E-score” value is -0.0722.

As to CCATAGCA, the “PBM E-score” value is -0.147.

As to CCGATACA, the “PBM E-score” value is 0.28.

Turning to CCCTCTGC, the “PBM E-score” value is -0.326.

Consider ATGCTGCG, for which the “PBM E-score” value came to 0.014.

Take CTCAAACC: the “PBM E-score” value was -0.124.

On to AATGGCGG, for which the “PBM E-score” value came to 0.261.

On to AATCGGTC, for which the “PBM E-score” value was determined as 0.234.

With CGAGGGAG, the “PBM E-score” value was -0.265.

In the case of CCATCTTA, the “PBM E-score” value is -0.11.

Source of the values: the supplement of paper PMC3334620.
